Data published in the supplement of paper PMC10126150.
Sequences with one replicate were seen in a single cluster, so their values are uncertain.

Test system: ATP
Assay: switch fluorescence ratio, 500 uM ATP over buffer (Cy3 cluster intensity, sum of 5 cycles each) (fold (ratio)); higher = stronger signal-on switching upon ATP binding; sequences stand for … in TCGTCGGCAGCGTCAGATGTGTATAAGAGACAGTTTTTTTTTTTTTTTTTTTTTTTTT…TC
Conditions: aptamer strand: ATP DNA aptamer (quencher-CACCTGGGGGAGTATTGCGGAGGAAGG + anchor), 100 nM annealed; ATP concentration: 500 uM; one replicate
Outline: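 The quencher-labelled ATP aptamer, at 100 nM, was annealed to Cy3-labelled switching-strand clusters on a modified Illumina MiSeq flow-cell. The clusters were imaged in selection buffer, then after 15 min with 500 uM ATP at 22 °C, and this buffer/ATP cycle ran five times with NaOH stripping and re-annealing between runs. Per-cluster fluorescence ratios, summed target-cycle over summed buffer-cycle Cy3 intensity, were averaged per switch-domain sequence. Clusters outside 100-1000 RFU were excluded.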
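Further: ATP exposure 15 min at 22 °C before imaging.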

Sequence	switch fluorescence ratio
ACAGGATTTT	0.993
GTGCACGGA	1.48
AGCGCCTTTT	1.01
GCGCCCGTAA	1.17
AATTTCCAGC	1.01
TTTGATGTGA	1.09
ACACACCCTA	1.23
TGAGCTATAG	1.39
CATGAAGGA	0.973
CAGAAGTAGC	1.03
TGGTTCCTAC	3.16
TGGCATAAGG	1.02
CTTGCTGCAG	0.984
ATGTATGCGG	1.09
CTTGAAAGGA	0.994
TTAATTGTAA	0.986
GAGTGCTCT	1.06
CACGGAACAA	1.31
ACAAGAATTT	0.98
AAGGTGGCGG	0.982
TCACTATAGT	1.07
ACACCCTATG	1.1
AGATTCGGGT	0.995

Sequence	switch fluorescence ratio
TGGTTTAAGA	0.979
ATATTAAATT	1.02
GAACACGTG	1.02
CGTTATAGCT	1.02
TACGAAGGTT	0.995
TGGAGGAATA	1.61
TCATACGCGC	2.08
AAACTAGGAG	0.984
GCGGTATCTA	1
AGGATTGAAA	1.03
GCCAACCGGG	1
TCCTATTCTG	1.03
AAAGTTTACG	0.978
AACGGTCGGC	0.975
TGCTTTACCC	1.04
AGAGGTCGTA	1.01
TTGCTCGGGT	1.02
GACCACTCTG	1.05
CCGTACGGCG	1.01
CGTCAGAAC	1.09
TCAGCTAGAG	1
ACAACAAAAG	1.03
CGTTTTTTGC	0.954

Sequence	switch fluorescence ratio
CCTGGGAAGC	1.1
CAAATGATC	1.05
GCGTTGGCAT	0.987
GCCAGAACCG	1.05
CGACAGACTA	1.03
TGGAGGCCGG	0.927
TTGTATTCCC	1.01
AGATACGGTT	0.989
CTGCGGTGGC	1.04
GGAGCTGCCC	1.12
CCGGACGCTG	1.31
AGATAGAGGG	1.01
CCGGCCTATA	1.53
ATGACAGAGT	1
TTTGGAGCTG	1.04
GCCGTGAAAA	1.01
AATCATCGGC	1.03
CTCTTGCTAC	5.9
GTTCAGATGT	1.05
GAACTTGTGG	0.987
GGGGAATGAG	1.05
GTCTTAATT	1.02
TTGGCGGACT	0.992

Sequence	switch fluorescence ratio
GCAGCGTATG	0.994
AATGAGTTGG	1.01
TTCAGGGCTA	1.01
TAGTATATTG	0.969
GCTCATCCG	1.2
GTGGGTACTC	1.14
TTCTTAAAT	1.03
AACGGAGGTC	1
CAGGTCAACA	0.992
TTGGGTGTGT	1.05
TCCTCTTGCG	1.34
GTTTTACCCC	1.06
CGTAAATGTT	1.02
TCACCGCTGG	1.16
ACCATAATGT	1.05
GGAGAAGGGC	0.956
TGACAGCGAT	1.48
TTCGAAGGCG	1.08
TGATATATGC	1
GGACCAGAAT	0.991
TGAAAGGTCG	1.02
GGTAATACAG	0.979
GCTAGTGTAG	1.01

Sequence	switch fluorescence ratio
ACGTAGTTTA	1.01
CGCCGGTAGA	1.06
GAAGTTGTAA	1.01
ATACTGGCAC	1.15
TAACACTTAA	1.04
TGACGATTTT	1.02
AGCCCGCCGT	1.04
AACGTCGGAC	1.07
ACCAGTGCT	1.13
GTAGGTACT	1.04
GCAAAAAGTA	0.976
TACGGGGTCG	1.09
GTGGAAAGTG	0.992
ACGAATCACG	1.05
ATCCCATCTA	0.997
TCTCGAGTCT	0.987
TTAATATATA	0.994
TGCGACGTAG	0.946
TACACTATCT	1.02
GCCATCGCGC	1.06
TATTTTCCAT	1.01
TGGGCCCAGC	0.975
AAGACAAGGT	1.01

Sequence	switch fluorescence ratio
TTGGGCTGTG	1.01
GGCTTCATAG	0.994
TTCTTTCATA	1
CATCCCGACG	1.22
TACTAATGA	1.02
ACCCGAGCTG	1.06
TGTGTGCTTG	0.978
TACTGATACC	1.22
TCGCGGCTGG	0.995
ACAATGCTCA	1.48
GTGATTATTT	1.02
TCCGTGGCGG	1.04
TTAGTATCAA	0.963
AACGCGATCA	1.29
ATGTGGGAAC	0.995
GTGATGCCTG	1.05
CATTCTTCCG	2.18
GGGTTCGGTA	1.01
ACCTTTGCCA	1.02
ACTTATACTT	1.14
GACAATAATA	1.25
TCCGTTTAGT	1.02
GCGTTCCTAT	0.99

Sequence	switch fluorescence ratio
AATGTTGGCT	0.977
TGAGGCCTTT	0.984
CGTCCGGTCA	1.18
TATTTCGGAT	0.993
GATCCGGTT	1.01
TAAGTCCTCA	0.981
TTATGGTGTA	0.985
AGTGAAGTCG	0.991
CAGACGGAC	1.49
TCTACCAAG	1.04
AAGCCAGACC	1.03
TCGGGGAAGC	1.01
GTGTTAATCG	1
ATTGAGAGGT	1.03
AGGATGCCGG	1.01
TTTCGCACGA	2.81
TCTTCGCTGA	1.35
ACTTAAAGCC	1.05
AAAAGCGCCC	1.08
